Data from the supplement of paper PMC7125110.
± gives the standard error. Variants at the background level are over-represented here.

B1: glmS ribozyme (parent)
chain: AUAAAAGCGCCAGAACUACAGAAAUGUAGUUGACGAGGAGGAGGUUUAUCGAAUUUUCGGCGGAUGCCUCCAAA

How the values were obtained:
Conditions in all cases: with glucosamine-6-phosphate
[1] = variants of: B1; experiment: self-cleavage kobs at 40 uM GlcN6P; higher = faster cleavage; RNA array
How it was run: (§1)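 Glucosamine-6-phosphate, from 40 μM to 10 mM in HEPES/KCl/Mg(OAc)2 buffer, was flowed over sequenced MiSeq chips carrying barcoded ribozyme variants transcribed in situ by E. coli RNA polymerase. A hybridised Cy3 probe tracked the variants at 37 °C as tiles were imaged over ~14 h. kobs, kcat and KM were obtained by fitting normalised per-tile medians to exponential decays and then applying weighted Michaelis–Menten fits across concentrations.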

[2] = variants of: B1; experiment: self-cleavage kobs at 640 uM GlcN6P; higher = faster cleavage; RNA array
How it was run: as §1

[3] = variants of: B1; experiment: self-cleavage kobs at 160 uM GlcN6P; higher = faster cleavage; RNA array
How it was run: as §1

[4] = variants of: B1; experiment: self-cleavage kobs at 2500 uM GlcN6P; higher = faster cleavage; RNA array
How it was run: as §1

[5] = variants of: B1; experiment: self-cleavage kobs at 10000 uM GlcN6P; higher = faster cleavage; RNA array
How it was run: as §1

Row | Variant | self-cleavage kobs at 40 uM GlcN6P [1] | self-cleavage kobs at 640 uM GlcN6P [2] | self-cleavage kobs at 160 uM GlcN6P [3] | self-cleavage kobs at 2500 uM GlcN6P [4] | self-cleavage kobs at 10000 uM GlcN6P [5]
1 | AUAAAAGCGCCACAACUACAGAAAUGUAGUUGACGAGGAGGAGGUUUAUCGAAUUUUCGGCUGAUGCCUCCAAA | < 1e-05 s⁻¹ | < 1e-05 s⁻¹ | < 1e-05 s⁻¹ | < 1e-05 s⁻¹ | < 1e-05 s⁻¹
2 | AUAAAAGCGCCAGUACUACAGAAAUGUAGUUGACGGGGAGGAGGUUUAUCGAAUUUUCGGCGGAUGCCUCCAAA | < 1e-05 s⁻¹ |  |  |  | 
3 | AUAAAAGCGCCAGCACUACAGAAAUGUAGUUGACGAGGAGGAGGUUUAUCGAAUUUUCGGCGGCUGCCUCCAAA | < 1e-05 s⁻¹ | < 1e-05 s⁻¹ | < 1e-05 s⁻¹ |  | 
4 | AUAAAAGCGCCAGGACUACAGAAAUGUAGUUGACGAGGGGGAGGUUUAUCGAAUUUUCGGCGGAUGCCUCCAAA | 0.004 ± 0.00057 s⁻¹ | 0.0236 ± 0.0054 s⁻¹ | 0.00304 ± 0.00096 s⁻¹ |  | 0.138 ± 0.052 s⁻¹
5 | AUAAAAGCGCCAGGACUACAGAAAUGUAGUUGACGAGGCGGAGGUUUAUCGAAUUUUCGGCGGAUGCCUCCAAA | 0.000225 ± 3.6e-05 s⁻¹ | 0.00281 ± 0.00047 s⁻¹ | 0.000699 ± 0.00017 s⁻¹ | 0.00921 ± 0.0025 s⁻¹ | 0.0134 ± 0.0019 s⁻¹
6 | AUAAAAGCGCCAGUACUACAGAAAUGUAGUUGACGAGUAGGAAGUUUAUCGAAUUUUCGGCGGCUGCCUCCAAA | < 1e-05 s⁻¹ |  |  |  | < 1e-05 s⁻¹
7 | AUAAAAGCGCCAGCAAUACAGAAAUGUAGUUGACGAGGAGGAGGUUUAUCGAAUUUUCGGCGGAUGCCUCCAAA | < 1e-05 s⁻¹ | 2.75e-05 ± 1.3e-05 s⁻¹ |  | 6.73e-05 ± 1.1e-05 s⁻¹ | 5.95e-05 ± 6.9e-06 s⁻¹
8 | AUAAAAGCGCCAUAACUACAGAAAUGUAGUUGACGGGGAGGAGGUUUAUCGAAUUUUCGGCAGAUGCCUCCAAA | < 1e-05 s⁻¹ |  |  |  | 
9 | AUAAAAGCGCCAUACCUACAGAAAUGUAGUUGACGAGGAGGAGUUUUAUCGAAUUUUCGUCGGAUGCCUCCAAA | < 1e-05 s⁻¹ | < 1e-05 s⁻¹ | < 1e-05 s⁻¹ | < 1e-05 s⁻¹ | < 1e-05 s⁻¹
10 | AUAAAAGCGCCAGUACUACAGAAAUGUAGUUGAGGAGGAGGAGGUUUAUCGAACUUUCGGCGGAUGCCUCCAAA | < 1e-05 s⁻¹ |  |  | < 1e-05 s⁻¹ | < 1e-05 s⁻¹
11 | AUAAAAGCGCCAUAACUACAGAAAUGUAGUUGACGAUGAGGAGGUCUAUCGAAUUUUCGGCGGAUGCCUCCAAA | < 1e-05 s⁻¹ |  |  |  | < 1e-05 s⁻¹
12 | AUAAAAGCGCCAGUACUACAGAAAUGUAGUUGACGAGGAGGAGGUUUAUCGAAUUUUCGGCGGAUGCUUCCAAA | 2.73e-05 ± 7.7e-06 s⁻¹ | 0.000297 ± 3.8e-05 s⁻¹ | 6.57e-05 ± 1.2e-05 s⁻¹ | 0.000422 ± 6.8e-05 s⁻¹ | 
13 | AUAAAAGCGCCAGCACUACAGAAAUGUAGUUGACGCGGAGGAGGUUUAUCGAAUUUUCGGCGAACGCCUCCAAA | < 1e-05 s⁻¹ |  | < 1e-05 s⁻¹ |  | < 1e-05 s⁻¹
14 | AUAAAAGCGCCAGCACUACAGAAAUGUAGUUGACGAGGAGGAGGUUUAACGAAUUUUCGGCGAAUGCCUCCAAA | < 1e-05 s⁻¹ |  |  |  | 
15 | AUAAAAGCGCCAGUACUACAGAAAUGUAGUUGACGACGAGGAGGUUUAUCGAAUUUUCGGCGGAUGCCUCCAAA | < 1e-05 s⁻¹ |  |  |  | 
16 | AUAAAAGCGCCAGCACUACAGAAAUGUAGUAGACGAGGAGGAGGUUUAUCGAAUUUUCGGCGGAUGCCUCCAAA | 0.000559 ± 0.00011 s⁻¹ |  |  |  | 
17 | AUAAAAGCGCCAGUACUACAGAAAUGUAGUUGACGAGGAGGAGGUUUAUCGAAUUUUCGGCGGAUGACUCCAAA | 6.24e-05 ± 7.4e-06 s⁻¹ | 0.000406 ± 5.4e-05 s⁻¹ | 0.000172 ± 2.5e-05 s⁻¹ | 0.00137 ± 0.00031 s⁻¹ | 0.00155 ± 0.00023 s⁻¹
18 | AUAAAAGCGCCAGUACUACAGAAAUGUAGUUGACGAGGAAGAGGUUUAUCGAAUUUUCGGCGGAUGCCUCCAAA | 4.43e-05 ± 1e-05 s⁻¹ | 0.000643 ± 0.00013 s⁻¹ |  |  | 0.00161 ± 0.00021 s⁻¹
19 | AUAAAAGCGCCACAACUACAGAAAUGUAGUUGACGAGGAGGAGGCUUAUCGAAUUUUCGGCGGAUGCCUCCAAA | < 1e-05 s⁻¹ | < 1e-05 s⁻¹ | < 1e-05 s⁻¹ | < 1e-05 s⁻¹ | 
20 | AUAAAAGCGCCACAACUACAGAAAUGUAGUUGACGAGGAGGAGGUUUAUCGAAUUUACGGCGGAUGCCUCCAAA | < 1e-05 s⁻¹ |  | < 1e-05 s⁻¹ |  | 
21 | AUAAAAGCGCCAGGACUACAGAAAUGUAGUUGACGAGGAGGAGGUUUAUCGAAUUUUCGGCGGAUCCCUCCAAA | 4.79e-05 ± 9.1e-06 s⁻¹ | 0.000484 ± 0.00012 s⁻¹ |  | 0.00114 ± 0.00025 s⁻¹ | 0.00147 ± 0.00015 s⁻¹
22 | AUAAAAGCGCCAGCACUACAGAAAUGUAGUUGAUGAGGAGGAGGUUUAUCGAAUUUUCGCCGGAUGCCUCCAAA | < 1e-05 s⁻¹ |  |  |  | 
23 | AUAAAAGCGCCAGGACUACAGAAAUGUAGUUGACGAGGGGGAGGUUUAUCGAAUUUUCGACGGAUGCCUGCAAA | < 1e-05 s⁻¹ | < 1e-05 s⁻¹ |  |  | 
24 | AUAAAAGCGCCAGUACUACAGAAAUGUAGUUGACGAGCAGGAGGUUUAUCGAAUUUACGGCGGAUGCCUCCAAA | < 1e-05 s⁻¹ |  |  |  | 
25 | AUAAAAGCGCCAGCACUACAGAAAUGUAGUUGACGAGGAGGAGGUUUAUCGAAUUUUUGGCGUAUGCCUCCAAA | < 1e-05 s⁻¹ |  |  |  | 
26 | AUAAAAGCGCCACAACUACAGAAAUGUAGUCGACGAGGCGGAGGUUUAUCGAAUUUUCGGCGGAUGCCUCCAAA | < 1e-05 s⁻¹ |  |  |  | 
27 | AUAAAAGCGCCAGGACUACAGAAAUGUAGUUGACGACGAGGAGGUUUAUCGAAUUUUCGGCGGAUGCCUCCAAA | < 1e-05 s⁻¹ |  |  |  | 
28 | AUAAAAGCGCCAGGAUUACAGAAAUGUAGUUGACGAGGAGUAGGUUUAUCGAAUUUUCGGCGGAUGCCUCCAAA | 0.000207 ± 7.3e-05 s⁻¹ |  |  |  | 0.00243 ± 0.00096 s⁻¹
29 | AUAAAAGCGCCAGCACUACAGAAAUGUAAUUGACGAGGAGGAGGUUUAUCGAAUUUUCGGGGGAUGCCUCCAAA | < 1e-05 s⁻¹ |  |  |  | < 1e-05 s⁻¹
30 | AUAAAAGCGCCAGGACUACAGAAAUGUAGUUGCCGAGGAGGAGGUUUAUCGAAUUUUCGGCGGAUGCCUCCAAA | < 1e-05 s⁻¹ |  |  |  | 
